Measurements reported in the supplement of paper PMC12632987.
The full ranking holds about 1,800 sequences; the median of “median log2 fold change of GCK-ALFA target abundance (FLAG IP / Myc IP barcode read proportion)” is about 0.14, and the lowest 2% start at about -0.84. Some of the results follow.

T1: TRAF2, Q12933
T1 chain: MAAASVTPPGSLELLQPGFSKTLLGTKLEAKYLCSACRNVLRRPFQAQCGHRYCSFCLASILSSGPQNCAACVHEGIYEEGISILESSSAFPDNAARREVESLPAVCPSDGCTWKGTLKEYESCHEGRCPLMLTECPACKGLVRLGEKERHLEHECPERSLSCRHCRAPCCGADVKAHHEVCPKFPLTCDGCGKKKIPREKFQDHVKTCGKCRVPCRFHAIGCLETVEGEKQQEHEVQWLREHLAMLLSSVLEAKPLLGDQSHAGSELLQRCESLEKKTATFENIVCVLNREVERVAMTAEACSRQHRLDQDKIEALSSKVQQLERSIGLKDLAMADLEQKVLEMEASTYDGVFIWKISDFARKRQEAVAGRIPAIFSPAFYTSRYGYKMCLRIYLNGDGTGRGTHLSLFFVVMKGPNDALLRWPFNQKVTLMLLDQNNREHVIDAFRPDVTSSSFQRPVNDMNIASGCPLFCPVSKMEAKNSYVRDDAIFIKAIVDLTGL

B1: traf2_out_20_38_2022 (protein)
chain: SEEEEEKKKLEELVKVANEAYDEYTARFAEWKAAGKTVEEIAEEVKERIRELLTAAGLEEEAEILIEEVDLALKSPEAERLLVRTLARAVALVHQKELQK
B2: traf2_out_11_155_749 (protein)
chain: EKKLELLNKTTNEITDIWDEALKEADKIAAEAKAEHPEHAAEIDAVLEASKNYSPRSRILLLKRKFEELGLEEYAKRLEELIEKAQKEANEIVKKTEEEL
B3: traf2_out_13_95_1093 (protein)
chain: SAEVAKKINEIADEMLDKSLELLEELLKIAEKKGKAVEEVKKAIDLAKYRSINEAIHLLKELAKKYPEFEKELNETIEKIEELKREAGKKVAEILKEEKE
B4: traf2_out_11_169_841 (protein)
chain: EEQAKNRAINDKALELNDEAKEKLKAHAKELAKAAGLDVADIDAIFAANKGKSFSAIAGALIAYFTSKGKADAAAAVLAKYEELRDEVNKKATAFIKSLE
B5: traf2_out_13_95_1171 (protein)
chain: SEEKTKKEREIASEAFDKMEEVATRYRDEVLALIDDPEVAALMDEVVRNMNIETLRAAAARIQAAHPEKAAEIQALADKAIAEMREIRKETTEKLNAIEE
B6: traf2_out_16_104_1398 (protein)
chain: MEERKKKAEEIIKELEAIADELQKLLNELYKLYEEVSPEKKDAVADAMVAASEARRYALEAAERARKLAEEGGDLKEAEEMLKEAKERLAAAKKELAALK
B7: traf2_out_6_156_2412 (protein)
chain: MVEEILEKALEKVEELIKELAKASEEKKIAYISKIAGTAYRALQELREAGASLEEIEAFAEEFKKRTEELLKEAGLPEDTINLVLSALNAVFDVAIAEAK
B8: traf2_out_20_38_2021 (protein)
chain: SEEEEEEKKLEELIKKAQEAYDAAEAWIAALQAAGKSVAEIAEAAKARVREKLNAAGLEEEAEELVADIDRVLDSPDALRLIARILARAETLVFQKKLQE
B9: traf2_out_6_169_2484 (protein)
chain: SEEEELRKEAERHLKRARELLELARTIYEQVKKNNDLENLDNYILALETLLSAADRHYDLAIAYLRKLGKEEEAAEVEAERARHRAEMEAMIADVKKLKE
B10: traf2_out_18_147_1809 (protein)
chain: SWREAIDKLADLSEEIRKKMDEIAKLTGKEEEMEKLRDILTSTSVSEEEKEKAVEKAKKEYKAEGKEEAVALLDEALELSKKRDEAAKEANKLINEEEAK
B11: traf2_out_20_3_2222 (protein)
chain: SELKEEIRKKLEEIRKLLEEAKPLLPPEKYEELERLLKEAEEALETDLTDALVKLSELRRLALELAQEAAAAGNEELAALLEEMAELANKAAGLVLKAIE
B12: traf2_out_13_95_1182 (protein)
chain: SEETKEKINQIADDMIAQVEAVLDAAAKAVADDPEVKAALNAIRDTAVTKGISTAIHQLTELAAANPEHKELLTAALDQIKAIRTQAGKEVAKIIKEEEE
B13: traf2_out_14_166_1286 (protein)
chain: MTPEEIARIREIVDKLEPLNDKAVAEAEAILEKNKDKLSPEDLAKANELLDIARRNIGSSAINALKEMAEIFKKAGLEEAAKKFKELAKKLEEKLSELNK
B14: traf2_out_13_95_1040 (protein)
chain: TAELAKQINAIADEMVEKSLALLDEAAAELADDPEAVAVLEEARRLAETRGISEAIHLLDEAAAADPEHAARFEALRAELEAIRREAGRKVAALIKEAQA
B15: traf2_out_18_117_1779 (protein)
chain: MRREELIRRLEEIAERLDRAASELGTVFLENYEKLTPEEKSEIMDVLAELTAVRRRALELIELIREGKIPVEEAEKELEELEKEAEEAIERAERRIKEIK
B16: traf2_out_17_162_1472 (protein)
chain: MSIEERVEELEAELKELEERAEELEKKLENLENMSKEEITDLLVEASELRRRARQLAIEFEELAPEIGEERAKELAERALEIAERLQRIANKIYKELEKK
B17: traf2_out_18_3_1914 (protein)
chain: SAEERKKVSDKIDEIVDEATARAREALARLRAEHPEVAERAAALEADLAAGAGPFGILEALAELAREAGDEERAEEIERFLREKRKELQELVDEYEKLLK
B18: traf2_out_18_3_1930 (protein)
chain: TEEERQKISDKIDEIVDEARARAEAELARAAAEYPEYAAEIDALRATLAAGGAPFGVLDALAELYEKAGDTARAAELEAWLTEKRKEMQELVDEYEKEIK
B19: traf2_out_17_162_1532 (protein)
chain: SELEERLRELEEELRELEKRLEELEKELENLENMSKEELSDLLVEASEARRRALELAEELRELRSEIGEERAEELIRRAEEIAERLQRIANKIYEELEKK
B20: traf2_out_1_156_899 (protein)
chain: SNADKQYQKLKEFLHKPEVSKLLREAAGYLADIVDILKKAEKEKAPQEVIDKLKKIEEEAKKYLSEMVSNTELTLEELKKLVEKIKELKEEAKKLYEEFK
B21: traf2_out_14_17_1295 (protein)
chain: SILEELKEIEKQAKELAKKYPELALELGQLERKARSALVLAEMYLEDKSYKPELLEALKNLEKLAKEVAKKLKPKSKEAVKELEEIEKRAREILKKVEAE
B22: traf2_out_17_178_1701 (protein)
chain: SKEEIRKKISELTDKLIDLADEYGARLLALAEAEGVLSPEELAALRAALASGSNRTLLATAEELLPRSAASPELRALLAEFRAEYRKLSKEIAEAYKEYE
B23: traf2_out_15_180_1320 (protein)
chain: MTEEELERRIELANKVADEADARLDALLAANPELSPAERAALRALRRSLVTLYMNGEYEEAAAALERAKARLSPRAAAVADELAAFIKEKVEAAKKELAA
B24: traf2_out_5_192_2333 (protein)
chain: GPEEEERKKKIEEKAKKEVEELLKKIKEALKEKSLEEAKEFGLHLTGVLIAKAKSLEELEALAEEVAKAQKKVDPEIAEILDGARTLIEGVIRAEKRLEE
B25: traf2_out_12_187_972 (protein)
chain: SVQDELIRAAREALRQALKALREEAPRDPRFQEFLERLERAAELLEKHPSVAADLAVAASLILRAVRLRRAGLPQEEIDAAAEAAREELEAVLARLEALQ
B26: traf2_out_11_169_875 (protein)
chain: KEAEFNRKLNDFALELNDKAKEELKKFALKLAKEAGLNVEEIKKIFEKNKNKSLSAVASALIKYFKSKGKEEEAEKILKKYEELKDEINKKTSEKIKELE
B27: traf2_out_18_167_1834 (protein)
chain: EEEIEKKKNELLDEMIKESEIRRAARELLEALERDPEEAEKAWAKLKEVLSDNPELQAKIAAIEKLPPEERRKAARAFAEELAEETQRKMNELWKKYEEL
B28: traf2_out_6_3_2508 (protein)
chain: EEEEERKRNEEALKEAAEMSLETIETAAKTTLKELKKAVEDPNATESDFLAYDSALNTLIKIMEEHAKLNPEEKEKAEKFIEELKKERDKLIKEWKEKRK
B29: traf2_out_11_155_744 (protein)
chain: ERRRKLLQEMNDKIMDLFEKAREEALKIVEEAAEKYPEHKEELEKLIEKTKGFSYRSFILEMIRKFEELGLEEEAAKLKELLEKTQKEANEIVQKTEKEL

Target: T1, TRAF2, Q12933
Assay: median log2 fold change of GCK-ALFA target abundance (FLAG IP / Myc IP barcode read proportion) (log2 ratio); each designed protein is fused to an ALFA-tag nanobody in HEK293 cells to bring the named protein to FLAG-tagged glucokinase (GCK); Myc marks an untargeted standard; higher = target protein stabilised (more abundant)
Settings: target protein: 3xFLAG-MCP-GCK-ALFA reporter; HEK293 landing pad (RPLP)
Outline: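 The readout is target abundance, the per-binder median log2 ratio of FLAG to Myc barcode read proportions. It came from HEK293 landing-pad cells carrying a recombined ALFA-nanobody-fused binder library, induced with 2 μg mL^−1 doxycycline and transfected with a plasmid for a FLAG-tagged target and a Myc-tagged standard. After 48 h, lysates were immunoprecipitated with anti-FLAG and anti-Myc, and circular RNA barcodes were reverse transcribed, amplified and sequenced. Each barcode needed a proportion of at least 10^−7 in both replicates and each binder at least 3 barcodes per replicate, a pseudocount of 10^−6 was added, and the replicates were pooled.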

Binder | median log2 fold change
B1 | -0.885
B2 | 0.554
B3 | 0.00881
B4 | -0.215
B5 | -0.0714
B6 | 0.451
B7 | 0.261
B8 | 0.274
B9 | -0.181
B10 | 0.0738
B11 | -0.0477
B12 | -0.0403
B13 | 0.173
B14 | -0.662
B15 | 0.00992
B16 | 0.26
B17 | 0.282
B18 | 0.141
B19 | 0.0409
B20 | -0.247
B21 | 0.266
B22 | 0.0696
B23 | 0.018
B24 | 0.167
B25 | 0.148
B26 | -0.0661
B27 | 0.204
B28 | -0.238
B29 | 0.235
